# About 540 (0.36%) of roughly 150,000 compounds showed an effect of 50% or more. The list shows a part of the results.
# Test system: Plasmodium falciparum
# Assay: Primary screen in NF54 nanoGlo assay, in single point, at 2uM, 72h; a lower Z score goes with more inhibition
# Type: functional, Erythrocyte
# Conditions: timepoint 72 hour
Compound,% Inhibition [%],Z score
CC(C)(CN)Cc1ccc(C(F)(F)F)cc1,2,-0.24
CCOc1cccc(CC(=O)NCc2ccc3c(c2)CCN3C(C)=O)c1OCC,8,-1.49
Cc1csc([C@H](C)NC(=O)N2CCN(c3cccs3)CC2)n1,34,-3.8
O=C(NCc1cccc(C(F)(F)F)c1)[C@H]1CCCN(c2ncnc3nn(-c4ccc(F)cc4)cc23)C1,-13,1.16
CCCn1ncc(CN2CCN(C(=O)c3ccccc3)CC2)c1C,-9,1.69
COCCc1noc(C2CCCCCC2)n1,-3,0.59
Cn1c(=O)cc(N2CC(Cc3ccccc3C(F)(F)F)C2)[nH]c1=O,0,0.1
CC1(CC(F)(F)F)CN(C(=O)[C@H]2CCc3nccn3C2)C1,24,-3.01
CCc1ncnc(N2CC(C)(C)[C@H]2c2ccncc2)c1F,-4,0.49
Cc1cc(C(=O)Nc2cccc(F)c2)cc2c1N(C)S(=O)(=O)c1ccccc1-2,5,-0.58
O=C(Nc1cc(-c2cccc(Cl)c2)no1)C1CCN(c2ncnc3c2nc2n3CCCCC2)CC1,-13,2.11
Cc1cc(CC(=O)Nc2cc(C3CCC3)nn2C)no1,-6,0.71
Cc1nc(C)c(C(=O)N2CC(Cc3nncn3CC3CC3)C2)s1,3,-0.4
Clc1ccc(-c2noc(-c3ccc(N4CCC5(CC4)OCCO5)nn3)n2)cc1,11,-1.91
Cc1c(O)cccc1C(=O)N1CCC[C@H](c2nccn2C(C)C)C1,-18,1.89
Cc1cc(C)n(C[C@H](C)NC2(Cc3ccccc3)CC2)n1,-6,0.76
Cc1ccc(NC(=O)Cn2cc(S(=O)(=O)N3CCCCC3)ccc2=O)c(C)c1,-7,1.38
CCNC(=O)N1CC(Oc2cccc(C(F)(F)F)n2)C1,-11,2.03
CCCc1cc(N2CCC3(CC2)CNC(=O)c2ccccc2O3)n2ncnc2n1,17,-2.29
O=C(COc1ccc2ccccc2c1)Nc1cccc(S(=O)(=O)N2CCCC2)c1,-9,1.7
CCOC1CC(CO)(NC(=O)c2c(Cl)c3ccccc3n2C)C1(C)C (stereo not drawn),31,-3.55

Compound,% Inhibition [%],Z score
Cc1cc(C)n(Cc2cc(C(=O)N(C)CCc3ccccn3)n[nH]2)n1,15,-2.02
Cc1cc(NCCc2cccs2)c2nncn2n1,-26,2.43
CCC(=O)N1CCC(NCc2cnc(C(C)(C)C)s2)C(CC)C1 (stereo not drawn),-7,0.82
COc1cc2nc(C)sc2cc1NC(=O)NCc1cccnc1,-8,1.53
Cc1cc(NC(=O)NCCCOCC2CC2)n(Cc2ccccn2)n1,-3,0.27
CC(C)NC(=O)N(CCN1CCOCC1)CC(=O)N1CCCN(c2ccc(-c3ccccc3)nn2)CC1,-8,0.94
CC(C)n1ccnc1CN[C@@H](C)c1cccc(-n2cccn2)c1,-10,1.31
Cc1nc(CO[C@H]2CCN(C(=O)c3ccc(-n4cnnn4)cc3)C2)cs1,-4,0.67
Cc1ccc(-c2nnc(NC(=O)c3cc4c(s3)CCOC4)[nH]2)s1,0,0.03
C[C@H]1CCCCN1CCN(C)Cc1nnc(C2CC2)o1,0,0.08
CCN(CC)S(=O)(=O)NC(=O)c1ccc(C)c(C)c1,-4,0.67
CCn1ccc2ccc(CCC(=O)Nc3ccc(NC(C)=O)cc3)cc21,-12,1.42
CC(C)(C)c1ccc(=O)n(CN(C2CCCCC2)C2CC2)n1,-8,0.79
CCn1c(C(=O)NCCN2CCOCC2)cc2cc(NS(=O)(=O)c3ccc(Cl)cc3)ccc21,-1,0.19
Cc1cc(S(=O)(=O)N[C@H]2CC[C@@H](CC(=O)O)C2)sc1C,-2,0.32
Cc1c(N2CCOCC2)c(C)n(Cc2ccccc2F)c1C(=O)NC(C)C,-2,0.31
CCc1nc2c(=O)n(CC(=O)NCC3CCCCC3)nc(C)c2s1,0,0.06
CCOC(=O)c1cc(S(=O)(=O)N2CCC[C@H]2C(=O)Nc2cccc(C)c2C)cn1C,-6,1.17
O=C(OCc1nc(-c2ccccc2)cs1)C1CCCC1,2,-0.26
CCOCc1cc(CN2CCC[C@H](CCC(=O)N(C)C3CCN(C)CC3)C2)ccc1OC,-10,1.27
O=C(Cc1cccc(O)c1)Nc1cc(C2CCCC2)[nH]n1,-25,2.32

Compound,% Inhibition [%],Z score
Cn1cc(NC(=O)C2=NN(c3ccccc3)[C@H](C(N)=O)C2)cn1,-6,0.72
CCOC(=O)Cn1nc(C)c(NC(=O)c2ccncc2)c1C,0,-0.05
CC(C)(CNC(=O)N1CCC[C@]2(CNC(=O)C2)C1)C1CCC1,-1,0.19
COc1ccccc1Oc1ncnc(-c2ccccc2C)c1N,5,-0.94
COc1ccc2nc(C)c(C(=O)N3CCOC[C@@H]3CC(C)C)n2n1,-11,1.52
O=C1NCCc2c1[nH]c1c(Cl)ccc(Cl)c21,-14,2.19
O=C(NCc1nnc2n1CCC2)C1CC1C1CCCCC1 (stereo not drawn),34,-3.81
Cc1nc(O)cc(CN2CCCCC2)n1,-11,1.95
O=C(NC[C@@]1(COc2ccccc2)C[C@@H](O)[C@@H](O)C1)C1CCCC1,15,-1.77
O=C(c1cc2cc(F)ccc2[nH]1)N1CC(O)(C(F)F)C1,-7,0.95
CC(CNC(=O)C1CCCc2cn[nH]c21)Oc1ccc(Cl)cc1 (stereo not drawn),-7,1.03
CCCc1nc(C)cc(N2CCN(c3cc(=O)[nH]c(N)n3)CC2)n1,-1,0.13
CCOc1cc2cc(c1)C(=O)N(C)CC(=O)N[C@@H]1CN(Cc3cnc(N)nc3)CC[C@@H]1OCc1cccc(c1)O2,-23,2.88
Cc1cccc2c1nc1n2[C@@H](CNC(=O)c2ccc(Cl)cc2)COC1,-19,3.1
O=C(Cn1nc2c(Oc3ccccc3)nc3ccccc3n2c1=O)NCc1ccc(F)cc1,-16,2.31
COc1ncccc1C(=O)NC[C@H]1CCCO1,-3,0.35
C=CCc1cc(CN2CCC3(CC2)N=C(N(C)C)NC3=O)ccc1OC(C)C,-4,0.78
CS(=O)(=O)N1CCCN(Cc2cncn2C2CCCCC2)CC1,17,-2.22
Cc1cccc(N2C[C@H](C)N(C(=O)CCc3nc4ccccc4[nH]3)CC2=O)c1,7,-1.36
O=C(O)c1cccnc1NC[C@H]1CN(Cc2ccccc2)CC12CCOCC2,-16,2.55
O=C(c1cc(=O)[nH]c2ccccc12)N1CCCN([C@H]2COC[C@@H]2O)CC1,0,0.04

Compound,% Inhibition [%],Z score
O=C(C[C@H]1CCCO1)Nc1cc(Br)c(F)cc1Cl,7,-0.75
CCc1nn(C)cc1NC(=O)NCC1CCC(S(C)(=O)=O)CC1 (stereo not drawn),-9,1.69
CCN(CC)C(=O)N1CCNC[C@H]1c1ccncc1,5,-0.92
CCCc1nnc(N(C)Cc2cc(C3CC3)on2)o1,-13,1.87
Clc1ccc(-c2nnc3c4nnn(Cc5ccccc5Cl)c4ncn23)cc1,-7,0.98
COc1ccc(CN2CCOC[C@H](Oc3ccccc3)C2)cn1,23,-2.68
CC(C)CC(=O)N1CCCN(c2ccc(NC(=O)c3cccs3)cc2C(=O)NCc2ccc(F)cc2)CC1,7,-0.91
Cn1nc(-c2ccc3c(c2)OCO3)ccc1=O,-2,0.31
Cc1nc(C)n(CCCNS(=O)(=O)N2CCCCC2)n1,-14,1.9
C[C@H](O)CNC(=O)C(=O)Nc1cc(Br)ccc1F,-8,1.06
COC[C@@H]1[C@H](NC(=O)Cc2ccccc2Cl)[C@H]2CCO[C@H]21,14,-2.51
O=C(c1ncccn1)N1CC[C@H](Oc2cccnn2)C1,-7,0.78
COc1ccc(CNC(=O)N2CCc3[nH]c4c(Br)cccc4c3C2)cc1,-7,0.91
COc1cc(OC)cc(C(=O)N2CCN(c3ccc(NC(=O)c4cc5ccccc5cc4OC)cc3)CC2)c1,28,-3.14
Cc1nnc(Cn2cnc(-c3ccccc3)c2-c2ccc3cccc(O)c3n2)o1,-8,1.48
CCOC(=O)N1CCC(N2CCC(n3nccc3NC(=O)C3CCCC3)CC2)CC1,-5,0.62
Cc1ccc(-c2cn[nH]c2[C@H]2CCCN(C(=O)C(C)(C)O)C2)cc1,-14,2.64
CCOc1ccccc1CNC1CC(OC)(OC)C1,-3,0.3
CC[C@H](NS(=O)(=O)c1cc(C(N)=O)cs1)C1CC(O)C1 (stereo partly drawn),-8,0.94
CCCC(=O)NC(N1CC(C)OC(C)C1)C(Cl)(Cl)Cl (stereo not drawn),-13,1.76
O=C(c1cn2cccnc2n1)N1CCc2[nH]nc(-c3cccc(Cl)c3)c2C1,21,-2.87
